The list shows a part of the results.
T1: UNK ZnF1-3 (human, UniProt Q9C0B0 31-174)
T1 sequence: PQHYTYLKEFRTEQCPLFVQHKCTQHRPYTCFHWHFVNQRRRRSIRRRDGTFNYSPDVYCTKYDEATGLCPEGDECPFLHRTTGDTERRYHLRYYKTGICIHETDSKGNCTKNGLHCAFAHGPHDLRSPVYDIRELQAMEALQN

B1: chr15:98780418:98780419:-_ENSMUSG00000072235_ENSMUST00000097014|mus_hu|FALSE|FALSE (ssRNA)
RNA: GGGAGUUCUACAGUCCGACGAUCAGCAUACACUGCUACAUACAAAUUAACUGAUCAGACCACAACUUUUCAAUGUUUAAAACAGAAUAAGCUUCCCUGUAAAAGCAGCACCUUUGUGACGUUUUAACUUUAGUAUUCCUCUCCCAACAGAGGAUUGAGCAUCA
B2: chr14:22594296:22594297:+_ENSMUSG00000021770_ENSMUST00000119430|mus_mus|FALSE|FALSE (ssRNA)
RNA: GGGAGUUCUACAGUCCGACGAUCAUCAUAUUCAGUCAGCGUGAGCAAUGUGAUUCCAUCAAGGCGGUGCUUGUUGCAUAAAAUGUCCACAUACUCAAAGAAACCUUCGUCCUUCAGCCACACAGCCACAUGCUUGGUAGUCCACAACAGAGGAUUGAGCAUCA
B3: chr9:58722913:58722914:-_ENSMUSG00000032340_ENSMUST00000068664|mus_hu|FALSE|FALSE (ssRNA)
RNA: GGGAGUUCUACAGUCCGACGAUCGGCGACAGACACAGGUGUUCCAAAUCCCCCCGAGGAAGCUGCUGAGCGGCAGCUCAACCAGGACACUACAGGACACACAAUGGUUUAGUUUCGAAAAUCACAGGAAAAUGUAAGAAAAUGCAACAGAGGAUUGAGCAUCA
B4: chr3:179052105:179052106:+_ENSG00000121864_ENST00000484866|hu_mus|FALSE|FALSE (ssRNA)
RNA: GGGAGUUCUACAGUCCGACGAUCCCCAAACCUCAUCAAGCACUCACUACAUUUAUGAGGCAAGUCAGCUGAAUGCUUGAAAUCUAGAUGAAUUUUAAGAUCGUCAAUUUGUCCUGUUGAAUAUUCACAAUAUUGGCAUAAGUACAACAGAGGAUUGAGCAUCA
B5: 31015960_31016413_2293_3pUTR_ENSMUSG00000027660_ENSMUST00000118470|mouse|control|control (ssRNA)
RNA: GGGAGUUCUACAGUCCGACGAUCUAGAAUUCCUCCAUCCUCUGAGCAUGCUCACUCUGUAACGACUCAAGCUCUUUCUGUAGAUUCUGCUGCUCUUCAGUGAGCUCCUUCAUCGCCUUUGAACUGCUCAGCAUCUCCACCUCCCAACAGAGGAUUGAGCAUCA
B6: chr13:96295345:96295346:-_ENSG00000134874_ENST00000376829|hu_hu|motif|central (ssRNA)
RNA: GGGAGUUCUACAGUCCGACGAUCGCACCCAGAACCCUUACAAACUUGGGUCGGGGCUGCAUUCUGGGCUUUGGAGAGGCGGAAAUAUUUCUAGCAGCGACUUGUAGACCUCAGGCCUCUCAUUUCUAUGGGUCUUCUGGGGGCCAACAGAGGAUUGAGCAUCA

biological target: T1, UNK ZnF1-3; test: nsRBNS (natural sequence RNA bind-n-seq); RBNS binding buffer (assumed for nsRBNS): 25 mM Tris pH 7.5, 150 mM KCl, 3 mM MgCl2, 0.01% Triton X-100, 500 ug/ml BSA, 20 U/ml SUPERase-In, 4 C; UNK is unkempt and MSI1 is Musashi-1; names of the RNAs are library labels; protein concentration not given here; high values mean tight binding

| Binder | binding signal [enrichment R] |
| --- | --- |
| B1 | 1.94 |
| B2 | 1.1 |
| B3 | 1.75 |
| B4 | 0.952 |
| B5 | 0.514 |
| B6 | 1.02 |

Reference: paper PMC12136788
